This is an account of results in PubChem BioAssay AID360 (National Center for Advancing Translational Sciences (NCATS), 2006).

SMILES strings stand for the structures. Among all 48,000 compounds or so, about 550 (1.1%) were called active. Another 4% or so got no clear call; they are omitted. Rule as the data show it: active = potency below about 15 µM; inconclusive = mostly about 16 µM to 33 µM; inactive = weaker than that. Some of the results follow. Where only a bound is given, the exact number is not on record here.
Potency is read from the fitted curve at half-maximal effect.

The target of the experiment is Lysosomal acid glucosylceramidase (Homo sapiens) (UniProt P04062). The experiment can be described thus: Glucocerebrosidase.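 Also: the screen sought inhibitors.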 The settings on record: purified enzyme, resorufin glucoside fluorescence (screen aimed at inhibitors), 20 min; series mostly up to 77 µM. The gist of the method: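 Wild-type enzyme at 0.2 nM final in 50mM citric acid/KH2PO4, 10mM sodium taurocholate, 0.01% tween-20, pH 5.9, with resorufin beta-D-glucopyranoside at 30 uM final. Compounds titrated, 20 min at RT, red fluorescence read; AC50 from titration.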
Sequence of UniProt P04062 (P04062 whole entry, looked up): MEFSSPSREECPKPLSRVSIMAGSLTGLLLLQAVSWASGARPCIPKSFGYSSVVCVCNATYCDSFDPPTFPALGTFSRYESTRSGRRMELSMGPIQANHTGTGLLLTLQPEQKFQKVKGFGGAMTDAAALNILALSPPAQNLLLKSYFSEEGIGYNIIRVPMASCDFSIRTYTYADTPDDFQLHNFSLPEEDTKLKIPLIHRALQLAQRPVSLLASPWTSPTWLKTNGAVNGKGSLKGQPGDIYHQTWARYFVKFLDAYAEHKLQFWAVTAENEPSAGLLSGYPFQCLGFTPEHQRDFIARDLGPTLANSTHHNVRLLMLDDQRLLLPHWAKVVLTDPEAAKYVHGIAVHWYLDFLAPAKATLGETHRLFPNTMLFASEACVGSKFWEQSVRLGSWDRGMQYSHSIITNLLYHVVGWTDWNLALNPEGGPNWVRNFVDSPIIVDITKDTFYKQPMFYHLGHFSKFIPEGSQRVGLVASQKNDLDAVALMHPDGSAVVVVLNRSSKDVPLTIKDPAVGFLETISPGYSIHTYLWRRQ
On to `Cc1nnc(SCC(=O)Nc2ccc(S(=O)(=O)N3CCCC3)cc2)n1N`, for which the Potency is inactive: > 76.9 µM.

As for `CCOc1ccc(C2C(C(=O)c3ccco3)=C(O)C(=O)N2Cc2cccnc2)cc1OC` (stereo not given), the Potency was inactive: > 76.9 µM.

Turning to `CC(C)COC(=O)c1ccc(NC(=O)C2C3C=CC(C3)C2C(=O)O)cc1` (stereo not given), the Potency is inactive: > 76.9 µM.

Consider `CCCCCCC(=O)N(O)C1CC(=O)N(c2ccccc2)C1=O` (stereo not given), for which the Potency was inactive: > 76.9 µM.

In the case of `Cc1ccc(S(=O)(=O)N2CCCN(S(=O)(=O)c3ccc(C)cc3)CC2)cc1`, the Potency is inactive: > 76.9 µM.

Consider `Cc1cccc(S(=O)(=O)C(C#N)c2nc3ccccc3nc2N2CC(C)OC(C)C2)c1` (stereo not given), for which the Potency was inactive: > 76.9 µM.

Take `COC(=O)c1cccc(NC(=O)NC2CCCN2S(=O)(=O)c2ccc(Cl)cc2)c1` (stereo not given): the Potency is inactive: > 76.9 µM.

Consider `CCCn1nnc(NC(=O)COc2ccc(Cl)cc2)n1`, for which the Potency is inactive: > 76.9 µM.

Consider `Cn1c(=NC(=O)CSCC(=O)N2CCOCC2)sc2ccccc21`, for which the Potency is inactive: > 76.9 µM.

`COC(=O)C1(C)NC(c2cccs2)C2C(=O)N(c3ccccc3F)C(=O)C21` (stereo not given): the Potency was inactive: > 76.9 µM.

With `Cc1cccc(NC(=O)Cn2nnc(-c3ccc(CN4CCCC4)cc3)n2)c1C`, the Potency was inactive: > 76.9 µM.

As for `Nc1ncnc2c1cnn2-c1ccccc1`, the Potency was inactive: > 76.9 µM.

For the compound `CS(=O)(=O)c1nncn1-c1ccccc1`, the Potency was inactive: > 76.9 µM.

Turning to `COc1ccc(NC(=O)[C@@H]2[C@@H]3C(=O)N(C4CCCCC4)C(=O)[C@@H]3C3c4ccccc4C=CN32)cc1` (stereo not given in full), the Potency entry is “inactive”.

With `Cc1cc2c(nn1)CCc1nonc1-2`, the Potency was inactive: > 76.9 µM.

Consider `CC1CN(Cc2nc3c(c(=O)n(C)c(=O)n3C)n2CCCc2ccccc2)CC(C)O1` (stereo not given), for which the Potency is inactive: > 76.9 µM.

On to `CC(C)(C)C1CCC(OC(=O)c2ccncc2)CC1` (stereo not given), for which the Potency was inactive: > 76.9 µM.

On to `CN(c1ccccc1C(=O)Nc1cccnc1)S(C)(=O)=O`, for which the Potency was inactive: > 76.9 µM.

For `COc1ccc(C(=O)n2c(-c3ccco3)nc3ccccc32)cc1`, the Potency is inactive: > 76.9 µM.

Regarding `CCC(Sc1ccc(C(=O)O)cc1)C(=O)O` (stereo not given), the Potency was inactive: > 76.9 µM.

For `Cc1ccc(C)c(N(CC(=O)NCc2ccco2)C(=O)CCC(=O)Nc2ccccn2)c1`, the Potency was inactive: > 76.9 µM.

For `O=C(CCn1c(=O)sc2ccccc21)NCCC1=CCCCC1`, the Potency was inactive: > 76.9 µM.

For the compound `OC(COc1ccccc1)Cn1cc(Br)cn1` (stereo not given), the Potency is inactive: > 76.9 µM.

For `COc1ccc2sc(C)nc2c1NC(C)=O`, the Potency is inactive: > 76.9 µM.

With `Cn1nc(OCc2ccccc2)ccc1=O`, the Potency is inactive: > 76.9 µM.

In the case of `COc1ccc(C2=NOC(Cn3c(Cc4ccc(Cl)cc4)nc4c3c(=O)n(C)c(=O)n4C)C2)cc1` (stereo not given), the Potency is inactive: > 76.9 µM.

With `COc1cc2cc(CN(C(=O)Nc3ccccc3)C3CCCC3)c(=O)[nH]c2cc1OC`, the Potency was inactive: > 76.9 µM.

As for `O=C(NCc1ccco1)c1cc(-c2ccncc2)nc2ccccc12`, the Potency is inactive: > 76.9 µM.

As for `CCN(CC)S(=O)(=O)c1cccc(-c2nnc(SC(C)C#N)n2Cc2ccccc2)c1` (stereo not given), the Potency is inactive: > 76.9 µM.

Turning to `COc1ccccc1N1CCN(C(=O)CCc2ccc(S(=O)(=O)NC(C)C)cc2)CC1`, the Potency was inactive: > 76.9 µM.

Consider `COC(=O)c1ccccc1NC(=O)N1CCN(C/C=C/c2ccccc2)CC1`, for which the Potency is inactive: > 76.9 µM.

Take `CS(=O)(=O)N(CCc1ccccc1)CC(=O)N1CCCCC1`: the Potency is inactive: > 76.9 µM.

With `COc1cccc(OC)c1C(=O)Nc1ccc(CN2CCCCC2)cc1`, the Potency was inactive: > 76.9 µM.

Consider `[N-]=[N+]=CC(=O)CCCN1C(=O)c2ccccc2C1=O`, for which the Potency was inactive: > 76.9 µM.

Turning to `COCCCN1C(=O)C(=O)/C(=C(/O)c2ccc3c(c2)CC(C)O3)C1c1cccnc1` (stereo not given), the Potency is inactive: > 76.9 µM.

As to `N#Cc1nc(Cc2cccc3ccccc23)oc1N1CCC(C(N)=O)CC1`, the Potency was inactive: > 76.9 µM.

As for `O=C(O)C1CCCN1C(=O)Oc1ccccc1` (stereo not given), the Potency is inactive: > 76.9 µM.

Take `CC(=O)NC(C)C12CC3CC(CC(CC(=O)O)(C3)C1)C2` (stereo not given): the Potency is inactive: > 76.9 µM.

Take `Cc1noc(C)c1CSc1nnc2scc(-c3ccccc3)n12`: the Potency was inactive: > 76.9 µM.

With `CCCc1cc(=O)n2[nH]c(-c3ccc(Br)cc3)cc2n1`, the Potency entry is “inactive”.

Consider `COc1ccc(CC(NC(C)=O)C(=O)NC2CCN(c3nnnn3-c3ccccc3)CC2)cc1` (stereo not given), for which the Potency is inactive: > 76.9 µM.

Turning to `CC(N=c1ccccn1C(=O)Nc1ccc(F)cc1)c1ccco1` (stereo not given), the Potency was inactive: > 76.9 µM.

`[O-][n+]1onc2c1CCc1nnc(-c3ccccc3)cc1-2`: the Potency was inactive: > 76.9 µM.

As to `COc1ccc(CCNC(=O)COC(=O)c2ccco2)cc1OC`, the Potency was inactive: > 76.9 µM.

Regarding `O=C(O)C1C2C=CC(C2)C1C(=O)NCCCn1ccnc1` (stereo not given), the Potency is inactive: > 76.9 µM.

Turning to `CCNc1nc(SCc2ccccc2)nc(N2CCOCC2)n1`, the Potency is inactive: > 76.9 µM.

On to `CCOC(=O)c1cc(CC)sc1N`, for which the Potency is inactive: > 76.9 µM.

With `CCOC(=O)C1CCN(C(=O)Cc2c(C(=O)O)[nH]c3ccccc23)CC1`, the Potency was inactive: > 76.9 µM.

Consider `COc1ccc(Cn2c(CCC(=O)O)nc3cccnc32)cc1`, for which the Potency is inactive: > 76.9 µM.

As to `O=C(CCNS(=O)(=O)c1ccc(Cl)cc1)NCc1cccnc1`, the Potency is inactive: > 76.9 µM.

Take `CCC(C(=O)Nc1ccccc1C(=O)N1CCCC1)N1C(=O)c2ccccc2C1=O` (stereo not given): the Potency is inactive: > 76.9 µM.

As to `O=C(c1cc2ccccc2oc1=O)N1CCCC1`, the Potency was inactive: > 76.9 µM.

Turning to `N#CC1=C(N)n2c(s/c(=C\c3ccco3)c2=O)=C(C#N)C1c1ccco1` (stereo not given), the Potency was inactive: > 76.9 µM.

Regarding `O=C(c1ccccc1)N1CCCOC1c1ccccc1` (stereo not given), the Potency was inactive: > 76.9 µM.

On to `COc1cccc(C2/C(=C(\O)c3ccc4c(c3)OCO4)C(=O)C(=O)N2CCN(C)C)c1OC` (stereo not given), for which the Potency is inactive: > 76.9 µM.

As to `CCC(C)[C@H](NC(=O)NCc1ccco1)C(=O)O` (stereo not given in full), the Potency is inactive: > 76.9 µM.

For the compound `CCOC(=O)CC1(CC(=O)OCC)NC(=O)c2c(C)sc(C(=O)OCC)c2N1`, the Potency is inactive: > 76.9 µM.

`CCC(=O)N1c2ccc(S(=O)(=O)CCC(=O)NCCC3=CCCCC3)cc2CC1C` (stereo not given): the Potency is inactive: > 76.9 µM.

With `CCCOc1ccc(C(=O)C(c2ccccc2)N2CCOCC2)cc1` (stereo not given), the Potency was inactive: > 76.9 µM.

Take `CC1Cc2cc(/C(O)=C3\C(=O)C(=O)N(CCN4CCOCC4)C3c3ccccc3F)ccc2O1` (stereo not given): the Potency is inactive: > 76.9 µM.

As to `Cc1cc(C(=O)O)c(CCCN)s1`, the Potency is inactive: > 76.9 µM.

In the case of `COc1cc(N2CN=c3s/c(=C\c4ccccn4)c(=O)n3C2)cc(OC)c1OC`, the Potency is inactive: > 76.9 µM.

For `COCCCNC(=O)c1ccc(CS(=O)(=O)Cc2cccc(C)c2)o1`, the Potency is inactive: > 76.9 µM.

Take `O=C(COC(=O)c1cccs1)NCC1CCCO1` (stereo not given): the Potency was inactive: > 76.9 µM.

With `Nc1nonc1-c1nc2ccccc2n1CC(=O)N1CCCCC1`, the Potency entry was “inactive”.

As to `CN1CCN(S(=O)C23CC4CC(CC(C4)C2)C3)CC1` (stereo not given), the Potency is inactive: > 76.9 µM.

Consider `CCOC(=O)C(NC(C)=O)(Nc1ccc(S(=O)(=O)Nc2cc(C)nc(C)n2)cc1)C(F)(F)F` (stereo not given), for which the Potency is inactive: > 76.9 µM.

`Fc1ccc2[nH]c3c(N4CCN(C5CCCCC5)CC4)ncnc3c2c1`: the Potency was inactive: > 76.9 µM.

For `CCCCNC(=O)c1cc(-c2ccc(F)cc2)on1`, the Potency was inactive: > 76.9 µM.

Turning to `COc1cc(C)nc(OCCNC(=O)COc2ccc(Cl)cc2Cl)n1`, the Potency is inactive: > 76.9 µM.

Take `Cc1nnc(SC(C)C(=O)NCC2CCCO2)n1-c1ccccc1` (stereo not given): the Potency is inactive: > 76.9 µM.

On to `CCOC(=O)c1ccccc1NC(=O)c1cn(CC)c2nc(C)ccc2c1=O`, for which the Potency is inactive: > 76.9 µM.

`Cc1occc1C(=O)Nc1nn[nH]n1`: the Potency is inactive: > 76.9 µM.

Regarding `Cc1cc(C(=O)Nc2sc3c(c2C#N)CCCCC3)cs1`, the Potency was inactive: > 76.9 µM.

In the case of `Cc1ccc(-n2ccnc2SCC(=O)N(CC(C)C)C2CCS(=O)(=O)C2)c(C)c1` (stereo not given), the Potency is inactive: > 76.9 µM.

Regarding `CC1CCN(C(=O)CSc2ccc3nnc(-c4ccc(F)cc4)n3n2)CC1`, the Potency is inactive: > 76.9 µM.

With `CCC1Oc2ccccc2N(CC(=O)Nc2ccc3c(c2)OCCO3)C1=O` (stereo not given), the Potency is inactive: > 76.9 µM.

Take `COc1ccc(C2C(C(=O)N3CCN(c4ccccc4F)CC3)c3ccccc3C(=O)N2C)cc1` (stereo not given): the Potency was inactive: > 76.9 µM.

As for `CC(C)(C)OC(=O)c1c(N)n(CCCN2CCCC2=O)c2nc3ccccc3nc12`, the Potency is inactive: > 76.9 µM.

Take `CCCCN1C(=O)C(NC(C)=O)c2cc(Br)ccc21` (stereo not given): the Potency is inactive: > 76.9 µM.

Turning to `CCC(c1nnnn1C1CCCC1)N1CCN(c2ccccc2F)CC1` (stereo not given), the Potency was inactive: > 76.9 µM.

Consider `CCCn1nc(-c2ccccc2)c2nc3ccccc3nc21`, for which the Potency was inactive: > 76.9 µM.

As to `CCn1c(SCc2ccc(C(=O)OC)o2)nc2sc3c(c2c1=O)CCCC3`, the Potency was inactive: > 76.9 µM.

Take `CC(c1nnc(SCC(=O)Nc2ccc3[nH]c(=O)[nH]c3c2)n1Cc1ccccc1)N(C)C` (stereo not given): the Potency was inactive: > 76.9 µM.

Take `COC(=O)CCCC(=O)N1CCOCCN(C(=O)CCCC(=O)OC)CCOCC1`: the Potency was inactive: > 76.9 µM.

For the compound `CCCn1c2c(c(O)c(C(=O)Nc3ccc(OCC)cc3)c1=O)CCCC2`, the Potency was inactive: > 76.9 µM.

As to `CCOC(=O)c1cnc(SCC(=O)Nc2ccccc2N2CCOCC2)nc1N`, the Potency is inactive: > 76.9 µM.

In the case of `Cc1cc(NC(=O)CCCSc2nc(-c3ccco3)cc(C(F)(F)F)n2)no1`, the Potency was inactive: > 76.9 µM.

Regarding `COc1ccc(S(=O)(=O)N2CCCC2C(=O)Nc2nccs2)cc1` (stereo not given), the Potency was inactive: > 76.9 µM.

With `COc1cc(C(=O)NCCc2ccc(S(N)(=O)=O)cc2)cc(OC)c1OC`, the Potency was inactive: > 76.9 µM.
